GI50 and TGI data for four compounds are collected here from PubChem BioAssay (NCI).

The structures appear in SMILES notation.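 Method: 48-hour compound exposure of cells in 96-well plates, five concentrations, linear interpolation of endpoints. GI50 marks 50% less growth. TGI is the concentration that stops growth completely.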

The experiment concerns NCI-H322M lung. Kind of experiment: growth of human tumour cells (NCI), 48 h.

For the compound `COc1ccc(Cc2nn(CC(=O)N/N=C/c3ccc(F)cc3)c(=O)c3c(C)noc23)cc1`, the GI50 is 5.27 µM and the TGI came out at 26 µM.
Taken in the same sequence, the figures for `COc1cc2cc(C(=O)N3C[C@@H](CCl)c4c3cc(OC(=O)N3CCN(C)[C@@H]5CSSC[C@H]53)c3ccccc43)[nH]c2c(OC)c1OC` were 0.0234 µM and 0.892 µM.
Taken in the same sequence, the figures for `O=C(/C=C/c1ccco1)c1nc2ccccc2n1Cc1ccc(Br)cc1` were 17.4 µM and 52.7 µM.
Taken in the same sequence, the figures for `O=c1oc2ccc(-c3ccc(F)cc3F)cc2c(=O)n1-c1ccc(F)c(Cl)c1` were 2.78 µM and 11.2 µM.
